About 14,000 (4.5%) of roughly 310,000 compounds showed an effect of 50% or more. The effect is printed as a negative number. The list shows a part of the results.
What follows are compounds tested against human ether-à-go-go-related gene (hERG) potassium channel (human, UniProt Q12809) (assay: primary screen, population patch clamp on CHO cells stably expressing hERG).
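Further: peak tail current of the secondary pulse compared with the same well before compound.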

Sequence of human ether-à-go-go-related gene (hERG) potassium channel (Q12809 whole entry, looked up): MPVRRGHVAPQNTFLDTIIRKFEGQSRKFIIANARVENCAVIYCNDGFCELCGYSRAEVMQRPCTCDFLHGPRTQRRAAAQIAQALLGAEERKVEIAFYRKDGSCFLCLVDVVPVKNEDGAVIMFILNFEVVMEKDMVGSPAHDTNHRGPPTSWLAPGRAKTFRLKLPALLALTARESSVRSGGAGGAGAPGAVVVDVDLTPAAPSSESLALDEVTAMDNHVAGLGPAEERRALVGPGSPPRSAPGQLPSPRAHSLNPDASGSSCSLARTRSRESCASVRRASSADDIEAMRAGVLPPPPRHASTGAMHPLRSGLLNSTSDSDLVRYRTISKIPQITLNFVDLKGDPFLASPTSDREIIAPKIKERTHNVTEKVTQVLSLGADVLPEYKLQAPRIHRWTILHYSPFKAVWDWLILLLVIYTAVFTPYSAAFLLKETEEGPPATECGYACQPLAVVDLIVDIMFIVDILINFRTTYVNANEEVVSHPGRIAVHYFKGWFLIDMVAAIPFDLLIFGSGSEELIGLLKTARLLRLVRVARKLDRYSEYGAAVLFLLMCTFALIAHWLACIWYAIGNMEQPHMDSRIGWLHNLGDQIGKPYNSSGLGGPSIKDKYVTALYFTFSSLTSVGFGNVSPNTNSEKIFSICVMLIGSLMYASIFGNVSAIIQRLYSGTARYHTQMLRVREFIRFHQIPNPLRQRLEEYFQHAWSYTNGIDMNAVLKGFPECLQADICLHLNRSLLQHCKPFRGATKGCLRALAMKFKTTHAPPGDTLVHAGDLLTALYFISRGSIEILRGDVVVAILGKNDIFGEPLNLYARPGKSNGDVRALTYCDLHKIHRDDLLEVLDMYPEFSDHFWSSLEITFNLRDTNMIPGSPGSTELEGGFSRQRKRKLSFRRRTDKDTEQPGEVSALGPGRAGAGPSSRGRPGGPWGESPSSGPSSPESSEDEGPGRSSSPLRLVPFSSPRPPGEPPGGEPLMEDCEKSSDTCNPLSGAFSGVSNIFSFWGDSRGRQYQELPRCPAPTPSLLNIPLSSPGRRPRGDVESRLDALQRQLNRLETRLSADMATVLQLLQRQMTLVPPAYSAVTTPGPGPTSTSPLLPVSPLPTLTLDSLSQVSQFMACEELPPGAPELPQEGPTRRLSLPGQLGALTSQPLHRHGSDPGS

| SMILES | hERG current change (%, negative = inhibition) at 10uM [%] |
| --- | --- |
| CCOc1ccccc1CNc1nc2ccccc2n1C | -20.6 |
| O=C(NCC(=O)N1CCN(S(=O)(=O)c2ccccc2)CC1)c1ccc2ccccc2c1 | -53.5 |
| CCOC(=O)[C@H]1[C@H]2COc3ccccc3[C@@H]2N2C(=O)c3cc(F)c(F)cc3NC(=O)[C@@]12C | -30.9 |
| CC(C)(C)c1cc(NS(=O)(=O)c2ccc(Br)s2)no1 | -1.48 |
| O=c1[nH]c(C2CCN(S(=O)(=O)c3ccccc3F)CC2)nc2c1nnn2Cc1ccc(OC(F)(F)F)cc1 | 26.1 |
| Cc1cc(Cl)ccc1OCCCC(=O)N/N=C/c1cccc([N+](=O)[O-])c1 | 22.2 |
| CCOc1ccc(S(=O)(=O)N2CCCC(C(=O)NCc3ccncc3)C2)cc1C (centres unmarked) | 1.92 |
| COC(=O)C(c1ccccc1)N(Cc1cccc(CN(C(C(=O)OC)c2ccccc2)S(C)(=O)=O)c1)S(C)(=O)=O (centres unmarked) | -0.726 |
| CNC(=O)C1CC(=O)N(c2ccc(C)cc2)C1 (centres unmarked) | -2.55 |
| COc1ccccc1NC(=O)CN1CCC(n2c(C)nc3cc(F)ccc32)CC1 | -72.2 |
| Cn1cccc1/C=N/NC(=O)Cc1cccc2ccccc12 | -15.8 |
| COc1ccc(C(C)(C)NC(=O)C2CCC(=O)N(CCCN3CCCC3=O)C2)cc1 (centres unmarked) | 10.3 |
| Cl.OC(COc1ccc(Cl)cc1)CN1CCN(c2ccccc2)CC1 (centres unmarked) | -29.7 |
| O=S(=O)(c1cccc(Cl)c1Cl)N1CCCCC1 | -10.4 |
| CCOC(=O)C(NC(=O)CC)(Nc1ccc(S(N)(=O)=O)cc1)C(F)(F)F (centres unmarked) | 8.89 |
| O=C(c1cc(-c2ccco2)on1)N1CCN(C(c2ccccc2)c2ccccc2)CC1 | -6.24 |
| COc1ccc(NC(=S)N2CCN(Cc3ccccc3)CC2)cc1 | 0.401 |
| CCOc1cc(S(=O)(=O)n2cc(-c3ccc(F)cc3)c(N)n2)cc(OCC)c1OCC | 17.1 |
| COc1cccc(NC(=O)c2oc3ccccc3c2NC(=O)C2CC2)c1 | -4.14 |
| CSCCC(NC(=O)C12CC3CC(CC(C3)C1)C2)C(=O)OCC(=O)c1ccc(Cl)cc1 (centres unmarked) | 9.01 |
| CCCCCC/C=N/Nc1nnc(Cc2ccc(OC)c(OC)c2)c(=O)[nH]1 | 19.8 |
| N/C(=N\c1nc2ccccc2o1)NC(=O)c1ccccc1NC(=O)c1ccccc1 | 15.4 |
| C=CCNC(=O)C1CC(=O)N(c2ccc(OCC(=O)Nc3ccc(Cl)c(C(F)(F)F)c3)cc2)C1 (centres unmarked) | 1.44 |
